# Source: the supplement of paper PMC3334620
# Over roughly 33,000 sequences, “E-score (-0.5 to 0.5)” has its median near -0.01; the highest 2% begin near 0.26. Some of the results follow.
# Target: Ste12 (UniProt P13574)
# Assay: PBM E-score (8-mer binding enrichment) (E-score (-0.5 to 0.5)); higher = stronger / more preferred TF binding; most listed sequences are background and not binding sites
# Conditions: protein concentration: 200 nM; construct: GST-DNA-binding domain
# In short: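 Universal all-10-mer Agilent arrays, double-stranded by primer extension on fresh or once-stripped slides, were probed with about 100-200 nM GST-tagged yeast transcription factors made by PURExpress. Fluorescent anti-GST detected bound protein, and masliner normalised the scans. E-scores from the Universal PBM Analysis Suite were given to each ungapped eight-base word pooled with its reverse complement.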
row,Sequence,PBM E-score
1,ACTGCACA,-0.235
2,CATCGTCG,-0.0289
3,ACACAAGG,-0.192
4,ATAGGTCG,-0.0327
5,GGGAAGAA,0.0723
6,TCCTTCCA,-0.0945
7,CATTATTC,0.0605
8,ATCCTGCG,-0.182
9,TGCTCCAA,0.063
10,ACATGAAC,0.0476
11,ATCACAGG,-0.0882
12,CAAGCGCA,0.0662
13,CTTCTGAC,-0.102
14,CCATAGGC,-0.0498
15,ACGAGCTG,-0.0751
16,CCGTGCTA,-0.0463
17,ACTCAGCC,0.0119
18,AATTTCTG,0.163
19,GAGCATAA,0.131
20,AAATTTAA,0.289
21,ATACGTAG,-0.125
22,GTTCTGCA,-0.205
23,CCCAGTCG,0.012
24,AAACGTAC,-0.146
25,ATGCTACG,-0.0768

row,Sequence,PBM E-score
1,TCTCGTAA,-0.0365
2,GTATTCAC,0.0258
3,TCGCTACA,-0.0739
4,ATGAATGC,0.138
5,ACCGGCGT,-0.0423
6,ATGACAAT,-0.028
7,CTCATAAC,-0.0159
8,CAGGCTGA,0.039
9,CGCCTCTC,-0.193
10,GAATGCTC,-0.262
11,TAAAGACA,-0.0651
12,CCACCAAC,-0.0807
13,GATTGGCC,-0.284
14,AAACAGTT,0.245
15,ACTGCCGA,-0.0319
16,CACACAAC,0.0607
17,GCTACAGC,0.0784
18,ACTTTTCT,0.183
19,ATGCTGCA,-0.223
20,GCCCCCCA,-0.248
21,AGTTGCAA,0.0159
22,AAGACTCA,-0.133
23,AGTAGCAT,0.0568
24,AAACTTGA,0.0828
25,ACGCACTC,-0.0692

row,Sequence,PBM E-score
1,ACATACGC,-0.0224
2,AAATACTT,0.126
3,GGCGTAAC,-0.213
4,ATGATACA,0.294
5,AGAGACCA,-0.185
6,AACGACTA,-0.00221
7,TCCGGCAA,0.0748
8,CGAGGTAA,0.16
9,CTTAGGTA,0.0168
10,AACCCGCT,0.0301
11,ACTGAATA,0.0269
12,CGGTTATC,-0.0501
13,GGTAGATA,0.125
14,ATAAACAG,0.181
15,CAATCACG,-0.141
16,TGTAAGAA,0.111
17,TAACTAGA,0.214
18,AATAATGG,0.0901
19,GAACACGC,0.059
20,CTGCTGAC,-0.0575
21,CTAATCTA,-0.0806
22,AGAACAGC,0.0361
23,ATCATAGC,0.1
24,GAACTACC,0.0169
25,TGACGTCA,0.0803

row,Sequence,PBM E-score
1,AAACCATG,-0.0069
2,GTCCTAGA,-0.127
3,GACGATCC,0.116
4,ACGCGGCG,0.027
5,ACCTTTCA,-0.1
6,AAGTGCCC,-0.114
7,CTATGGGA,-0.134
8,AAGAGCCT,-0.207
9,ATGCTAAG,0.00289
10,AACGTGTG,-0.123
11,GCCCAACC,0.0314
12,CAGACACG,-0.13
13,ATATTGTC,0.115
14,CTCCAATC,-0.143
15,AAATCGGG,0.19
16,ATATCTAA,0.241
17,CTCGGAGA,0.0521
18,TCTTAAGA,0.00892
19,CTGATTGC,-0.109
20,GATACAGC,0.0546
21,GTCAGATA,0.0271
22,ACGCTCAC,-0.0174
23,AAGGACTC,-0.315
24,AAACGTAG,0.0547
25,ATTAGCGC,0.0514

row,Sequence,PBM E-score
1,ACCCGCCT,-0.12
2,AACAGTTG,-0.016
3,TCGAGCCA,-0.272
4,ATCCACTC,-0.072
5,ACGGCATA,0.00284
6,ACCTTTTG,-0.124
7,CTCCAGTC,0.0501
8,CGGAAACG,0.109
9,AGTGAGGG,-0.146
10,GGCTATAC,-0.184
11,AACTTTTG,0.138
12,AATCTCGC,-0.0392
13,AAGCACAA,0.0259
14,CAGCATTA,-0.0209
15,CTAGCCAG,-0.255
16,CCTCAACG,-0.128
17,GACCCCCA,-0.223
18,ATCATTCC,-0.0156
19,CTACAAAC,-0.0316
20,ACCTAACT,0.184
21,GATGTGGA,-0.048
22,GAATCCGA,0.0836
23,AGGTGAAC,-0.14
24,CTTCGTAC,-0.0602
25,CTATACTA,0.068

row,Sequence,PBM E-score
1,AGACCAAA,0.0504
2,CAAACATA,0.23
3,ATGTTCGG,0.114
4,ACGTGATC,-0.0673
5,GCAATTAA,0.167
6,AAGGAGAG,-0.228
7,CAGTCGGG,0.0633
8,TACGCACA,-0.00528
9,CCACTCGC,-0.0268
10,ACAAATAA,0.252
11,CGCTGGGC,-0.183
12,CGATCGCA,0.0906
13,AGGTCCGC,-0.0607
14,ATGCAGGG,-0.111
15,AAAGCTAA,0.0285
16,GGACCTGA,-0.0635
17,TGGCCACA,0.00045
18,GCTATCAC,-0.198
19,GTACGCGA,-0.132
20,TCTCAGCA,0.0504
21,ACAAATTG,0.177
22,ATATCCGG,0.0217
23,CCTGGTTA,-0.059
24,GAACCGGA,-0.0365
25,CGACCGAC,-0.00449

row,Sequence,PBM E-score
1,TGGGCGAA,-0.091
2,TATTCGGA,0.122
3,CAAAGACA,-0.0628
4,ACGTCCTA,-0.151
5,GAACGCAC,0.0691
6,AGGATGCA,-0.0775
7,ATCCGTTA,0.0767
8,AGTAATCA,-0.132
9,TCAGAAAA,0.0129
10,CCTGCTGA,0.202
11,CCCCTCTA,-0.16
12,AAGGTCAC,-0.0177
13,AACTACAG,0.0408
14,GAGCAAGC,-0.164
15,ACTTCTTC,0.0988
16,AATCTAGT,0.0842
17,AGGGGGAA,-0.147
18,CACCAGGA,0.0351
19,CCGAACAA,0.217
20,AAGGTTGA,-0.0139
21,CTCAGCAG,-0.121
22,CGTTCACA,0.0262
23,GCCAGGGC,-0.211
24,CTCTGCCC,-0.141
25,AAGGACTA,-0.127

row,Sequence,PBM E-score
1,AGCGGGCC,-0.053
2,CGCCCTCC,-0.144
3,TACGGTGA,0.132
4,ATTCAGGG,0.0985
5,CGCATTGA,0.153
6,CGGATGAC,-0.0265
7,CTCTGAAC,-0.092
8,CGCTTGAC,0.0189
9,GACCCTAA,-0.0649
10,GAGTTTAA,0.162
11,CGTATTAC,0.0975
12,GTGACGGA,0.0546
13,CAGCCGGG,-0.0945
14,ATACAGCA,-0.0378
15,TACTTGGA,-0.12
16,AAAAGACT,-0.128
17,AATGTCAT,0.0301
18,GACGAGAC,-0.0196
19,CGCTCTAA,0.00821
20,TATGTTAA,0.119
21,GGCCCTGA,-0.123
22,CGCGACTA,0.195
23,ATGCTCCC,-0.17
24,GTTTTCCA,0.093
25,TAGAGTCA,-0.156

row,Sequence,PBM E-score
1,CAAGGAAA,0.00394
2,ATCGGACG,-0.16
3,GGTGAAGA,-0.0834
4,ACTAGCGG,-0.109
5,CGAGGGGC,0.0568
6,ATTAGTTC,0.151
7,ACCTTTCC,-0.0347
8,CCCACTCG,-0.182
9,CGCCAATC,0.0688
10,ACCGTCAG,-0.0862
11,CAAACTCA,0.139
12,TAGGGCCA,-0.246
13,AAAAGTTG,0.127
14,TAGGCTGA,0.078
15,CATATATG,0.18
16,CGCAGGAC,-0.135
17,AGCAGGGG,-0.164
18,ATGGTGCC,-0.077
19,ACCAACGG,-0.0145
20,AGCGGTTG,-0.133
21,CGGCAGAC,-0.177
22,AACGTGCT,0.0409
23,AAATAATA,0.257
24,GCACCCGA,0.0237
25,AGACTTAT,-0.0276

row,Sequence,PBM E-score
1,CCCCGCCA,0.38
2,AGTATGCG,-0.13
3,CAGTTATG,0.132
4,AGGCGTCG,-0.26
5,AACCTTAG,-0.099
6,AACTCTCG,-0.0681
7,TGTGCTAA,0.18
8,GGACTTTA,0.0546
9,TAAATACA,0.179
10,TCGTGAAA,0.177
11,GGACCCGA,-0.0164
12,GTGACAAA,0.173
13,CACAGTCC,-0.0123
14,AATTTTGT,0.208
15,AGCACGAC,-0.0807
16,AATTCAGC,0.031
17,ATCCTGGC,-0.0346
18,GCACTAAC,-0.198
19,GAAAGGGA,0.138
20,AGCGGCTG,-0.146
21,GAACTCAA,-0.0569
22,CTGTGCTC,0.0387
23,GGCTACAA,0.0668
24,ACGAATGA,0.135
25,TGACAGCA,0.0883

row,Sequence,PBM E-score
1,ACGACGTG,-0.0844
2,CACACTAG,-0.0877
3,CGACTTGA,-0.108
4,GAATTGAA,0.278
5,CTAGCCTC,-0.138
6,ACCAGTGA,-0.165
7,ACTGAGCG,-0.0397
8,GGCGTGAA,-0.113
9,CAGCGGCA,0.0718
10,GCGTATCA,0.171
11,AAGTCCAC,-0.23
12,AATCGGAC,-0.0158
13,CCACTGTA,-0.0483
14,ATGGTGGG,-0.0923
15,CGCGCAGA,0.0999
16,CAGGCGAG,-0.215
17,AGGACATC,0.0881
18,TACTTACA,0.151
19,TAATGAAA,0.155
20,GCGGCATA,0.00072
21,AACTCCTC,-0.255
22,GCCCTACC,-0.0457
23,CCGCCGTC,-0.159
24,ATGGAGCA,-0.0515
25,GTTCAAGA,-0.0182

row,Sequence,PBM E-score
1,GCCTACCC,-0.172
2,ATCGGAAA,0.21
3,AGCAGACT,0.0216
4,TATATACA,0.132
5,ACCCGGCG,-0.107
6,ACCCAAAA,0.13
7,CAAGGCAA,-0.223
8,GGTACGTA,-0.137
9,CGTGCGAA,-0.00328
10,GCCTTCGC,0.0264
11,CCATATCC,0.0086
12,AGGGCGAT,-0.229
13,GCTCGAGC,0.183
14,AATAACTG,0.0809
15,ACGGGAAA,0.0814
16,GACAAGGC,-0.24
17,ACAGGCTG,-0.0716
18,CGCCTGAA,0.102
19,GAATTTAC,0.0246
20,ACAATGAC,-0.101
21,ATAGGTCA,-0.0255
22,AGGGGGTG,-0.307
23,CACACCCC,-0.113
24,ACATACGT,-0.177
25,CTATTTCC,0.0739

row,Sequence,PBM E-score
1,CAGACTGA,0.127
2,CACGATGG,-0.217
3,AATGCGAG,-0.064
4,GCACCTAA,-0.0248
5,AGTCGGTG,-0.0709
6,AGAAGTGG,-0.083
7,TATTAACA,0.164
8,AACAATCT,0.104
9,TGACATAA,0.268
10,AAGGTAAA,0.189
11,CGCGTCGC,0.0419
12,ACCATTAT,0.0811
13,CATGTGAC,-0.101
14,AACATAGA,0.287
15,AACTTCTT,-0.105
16,ACCGCAGG,0.059
17,TAAACGAA,0.02
18,ACATGTAT,-0.0408
19,CGCCCTCA,-0.166
20,CGCAAGCA,-0.154
21,AGATGACC,-0.128
22,ATGAAGGC,-0.1
23,CTTAACCA,0.176
24,GGACTAGA,-0.124
25,ACGCGAAT,0.0971

row,Sequence,PBM E-score
1,AGCTGTGC,-0.129
2,AAGCATGC,-0.116
3,GAAAAGAA,0.209
4,CAGGATGC,-0.0687
5,CGGTAGCA,-0.114
6,ACGCGGCA,-0.00717
7,AGGGCCGA,-0.0149
8,CTGCTTTC,-0.0585
9,ATGGACAC,-0.0721
10,AAGTAAAT,0.261
11,AGCAAGAG,-0.0786
12,GCATATGC,-0.088
13,ACGCCGGC,0.21
14,ACTGAACA,0.0671
15,GAGGATAA,0.0948
16,TACACATA,-0.0354
17,AGGTAGCG,-0.231
18,AGGGCTGA,-0.134
19,ATAGATAT,0.197
